± gives the standard deviation of the averaged measurements. Growth of baker's yeast expressing single-residue variants of Pneumocystis jirovecii dihydrofolate reductase in 8.8 or 44 µM methotrexate (about 75% and 90% inhibition of the wild type). Selection coefficient per generation; 0 = like wild type, above 0 = less sensitive, below 0 = more sensitive or loss of function. No active / inactive call per row; the paper calls resistant above 0.220 (8.8 µM) or 0.243 (44 µM) together with a significance test. At 44 µM about 15% of codons end with one read or none, so the lowest values are floors (replicate rank correlation 0.74; 0.94 at 8.8 µM).
B1: UniProt A0EPZ9; numbered along this chain (parent)
chain: MDWQKSLTLIVALTLSRGIGLKNDLPWKLKSDMMFFSRVTSGLLVTRSTGQMNVVLMGRKTWESLPAHSRPLKNRINVVISRQEVLDLGGGAYHARSLDDALALLSQIYDSTSKIQLNRVFVIGGGELCKAAMEHSRLNRIIATVIHNEVDCDVFFPIDFRSSQSCLPWRKQDHSVLEAWVGSKVPQGKINENGFIYEFEMWIRDI

Variants of: B1
Assay: selection coefficient against synonymous wild-type codons (log2 per generation); higher = faster growth than wild type
Conditions: with Saccharomyces cerevisiae carrying the variant on a plasmid
Protocol: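 Pooled growth of yeast carrying single-residue variants of P. jirovecii dihydrofolate reductase (own DFR1 gene intact), two passages at 30 °C, three cultures, sequenced before and after. Codons with under 15 starting reads are left out; codons of one change are averaged.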

Variant | selection coefficient against synonymous wild-type codons (log2) (methotrexate 8.8 µM) | selection coefficient against synonymous wild-type codons (log2) (methotrexate 44 µM)
P168V | -0.236 ± 0.071 | -0.273 ± 0.09
P168A | -0.0959 ± 0.08 | -0.262 ± 0.14
P168K | -0.0984 ± 0.063 | -0.0528 ± 0.064
P168L | -0.181 ± 0.043 | -0.222 ± 0.13
P168W | -0.268 ± 0.059 | -0.3 ± 0.069
P168S | -0.0536 ± 0.078 | -0.0834 ± 0.19
P168H | -0.149 ± 0.039 | -0.088 ± 0.13
P168M | -0.237 ± 0.089 | -0.309 ± 0.098
Q172N | -0.161 ± 0.089 | -0.186 ± 0.095
Q172I | -0.101 ± 0.051 | -0.219 ± 0.14
Q172C | -0.109 ± 0.019 | -0.24 ± 0.13
Q172L | -0.145 ± 0.047 | -0.171 ± 0.088
Q172P | -0.109 ± 0.11 | -0.165 ± 0.088
Q172D | -0.0269 ± 0.028 | -0.209 ± 0.013
Q172R | -0.248 ± 0.077 | -0.274 ± 0.12
Q172K | -0.0828 ± 0.043 | -0.118 ± 0.15
Q172V | -0.0849 ± 0.03 | -0.174 ± 0.17
Q172W | -0.3 ± 0.1 | -0.183 ± 0.17
Q172T | -0.0603 ± 0.07 | -0.0738 ± 0.15
Q172H | -0.0624 ± 0.077 | -0.167 ± 0.14

Variant | selection coefficient against synonymous wild-type codons (log2) (methotrexate 8.8 µM) | selection coefficient against synonymous wild-type codons (log2) (methotrexate 44 µM)
Q172A | 0.0534 ± 0.022 | -0.0166 ± 0.14
Q172S | -0.0672 ± 0.049 | -0.179 ± 0.13
Q172M | -0.0504 ± 0.03 | -0.149 ± 0.09
Q172E | 0.00601 ± 0.044 | 0.0365 ± 0.032
Q172F | -0.256 ± 0.28 | -0.0758 ± 0.12
Q172G | -0.0801 ± 0.039 | 0.00771 ± 0.11
Q172Y | -0.171 ± 0.087 | -0.183 ± 0.14
K171M | -0.194 ± 0.085 | -0.153 ± 0.093
K171S | -0.106 ± 0.063 | -0.155 ± 0.21
K171I | -0.181 ± 0.047 | -0.16 ± 0.029
K171N | -0.122 ± 0.062 | -0.149 ± 0.072
K171Q | -0.0484 ± 0.051 | -0.23 ± 0.2
K171H | -0.0901 ± 0.054 | -0.0714 ± 0.11
K171E | -0.0527 ± 0.032 | -0.135 ± 0.051
K171C | -0.213 ± 0.03 | -0.235 ± 0.18
K171L | -0.175 ± 0.086 | -0.151 ± 0.11
K171R | -0.108 ± 0.046 | -0.0697 ± 0.098
K171D | -0.164 ± 0.049 | -0.296 ± 0.15
K171Y | -0.261 ± 0.061 | -0.212 ± 0.046
K171G | -0.169 ± 0.064 | -0.32 ± 0.069

Variant | selection coefficient against synonymous wild-type codons (log2) (methotrexate 8.8 µM) | selection coefficient against synonymous wild-type codons (log2) (methotrexate 44 µM)
K171V | -0.129 ± 0.07 | -0.179 ± 0.14
K171F | -0.276 ± 0.069 | -0.315 ± 0.086
K171A | -0.103 ± 0.064 | -0.119 ± 0.094
K171T | -0.101 ± 0.066 | -0.144 ± 0.09
K171P | -0.117 ± 0.067 | -0.066 ± 0.1
C166A | 0.0101 ± 0.028 | 0.0148 ± 0.073
C166W | -0.12 ± 0.043 | -0.199 ± 0.12
C166R | -0.0668 ± 0.065 | -0.115 ± 0.18
C166T | -0.0104 ± 0.032 | -0.0887 ± 0.11
C166P | -0.0379 ± 0.087 | -0.0488 ± 0.19
C166M | 0.011 ± 0.075 | -0.0718 ± 0.039
C166S | 0.0169 ± 0.067 | -0.0424 ± 0.1
C166Q | 0.00536 ± 0.053 | -0.152 ± 0.14
C166E | 0.0184 ± 0.027 | -0.0635 ± 0.11
C166Y | -0.0268 ± 0.056 | -0.0757 ± 0.12
C166N | -0.04 ± 0.042 | -0.161 ± 0.05
C166D | -0.0394 ± 0.0065 | -0.0402 ± 0.013
C166G | -0.0586 ± 0.054 | -0.0787 ± 0.088
